These are yes or no findings as the source states them, for the method shown. For some of these results: Binding seen in cells or lysates may run through a third protein. Some binding calls cover weakened binding; strength is not graded here. Tags and fused reporters may be left off the sequences shown.
T1: RRM protein (At5g10350), full length, split-YFP fusion in tobacco BY-2 protoplasts (Arabidopsis thaliana) (UniProt Q9LX90)
T1 sequence: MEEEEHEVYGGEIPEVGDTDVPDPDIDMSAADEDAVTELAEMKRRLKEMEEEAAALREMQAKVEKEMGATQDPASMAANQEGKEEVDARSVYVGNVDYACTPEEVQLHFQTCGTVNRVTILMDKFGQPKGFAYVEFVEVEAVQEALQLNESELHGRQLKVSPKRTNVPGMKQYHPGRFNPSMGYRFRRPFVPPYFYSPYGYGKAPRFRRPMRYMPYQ

T2: AtTERT N-terminal domain fragment RID1(1-271), split-YFP fusion in tobacco BY-2 protoplasts (Arabidopsis thaliana) (UniProt Q9SPU7)
T2 sequence: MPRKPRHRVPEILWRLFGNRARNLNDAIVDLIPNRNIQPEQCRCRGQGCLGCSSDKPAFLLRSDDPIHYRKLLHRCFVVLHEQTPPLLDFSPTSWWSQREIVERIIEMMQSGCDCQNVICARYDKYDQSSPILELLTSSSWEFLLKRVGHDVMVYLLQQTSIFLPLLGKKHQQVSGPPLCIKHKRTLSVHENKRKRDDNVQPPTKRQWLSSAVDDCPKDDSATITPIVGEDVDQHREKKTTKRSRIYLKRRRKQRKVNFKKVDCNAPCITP

T3: RRM protein (At5g10350), full length, yeast two-hybrid fusion (Arabidopsis thaliana) (UniProt Q9LX90)
T3 sequence: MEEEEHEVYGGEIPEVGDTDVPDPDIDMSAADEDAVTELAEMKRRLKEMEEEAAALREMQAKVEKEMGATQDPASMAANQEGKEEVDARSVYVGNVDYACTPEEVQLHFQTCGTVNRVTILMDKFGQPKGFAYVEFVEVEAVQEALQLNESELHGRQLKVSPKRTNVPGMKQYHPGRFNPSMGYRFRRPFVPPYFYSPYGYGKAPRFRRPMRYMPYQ

T4: RRM-4(82-217), RRM domain and C-terminus of the RRM protein, yeast two-hybrid fusion (Arabidopsis thaliana) (UniProt Q9LX90)
T4 sequence: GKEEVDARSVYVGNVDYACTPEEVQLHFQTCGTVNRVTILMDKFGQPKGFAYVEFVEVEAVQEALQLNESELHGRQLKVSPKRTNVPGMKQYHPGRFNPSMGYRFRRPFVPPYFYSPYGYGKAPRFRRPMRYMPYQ

T5: RRM-3(170-217), C-terminus of the RRM protein, yeast two-hybrid fusion (Arabidopsis thaliana) (UniProt Q9LX90)
T5 sequence: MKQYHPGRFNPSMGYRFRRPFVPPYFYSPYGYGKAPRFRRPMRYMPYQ

T6: RRM-2(1-169), N-terminus and RRM domain of the RRM protein, yeast two-hybrid fusion (Arabidopsis thaliana) (UniProt Q9LX90)
T6 sequence: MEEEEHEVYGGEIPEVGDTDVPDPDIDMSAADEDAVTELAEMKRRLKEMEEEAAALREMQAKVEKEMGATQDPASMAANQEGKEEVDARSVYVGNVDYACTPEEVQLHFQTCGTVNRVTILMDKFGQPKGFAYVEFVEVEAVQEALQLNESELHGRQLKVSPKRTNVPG

T7: RRM-5(82-169), RRM domain of the RRM protein, yeast two-hybrid fusion (Arabidopsis thaliana) (UniProt Q9LX90)
T7 sequence: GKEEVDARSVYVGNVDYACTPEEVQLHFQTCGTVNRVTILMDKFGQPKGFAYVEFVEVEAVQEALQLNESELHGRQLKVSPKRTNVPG

B1: cYFP-tagged putative nuclear DNA-binding protein G2p fragment G2p(347-401), cDNA library clone (domain or fragment, UniProt Q96327-3 347-401)
chain: LPKKTIEDPEIKGWLALGIKKKKGGGKKKKAQKAGEKGEASTEAEPMDASSNAQE
B2: Putative nuclear DNA-binding protein G2p, full length, nYFP fusion in tobacco BY-2 protoplasts (protein, UniProt Q96327-3 1-401)
chain: MSSDDERDEKELSLTSPEVVTKYKSAAEIVNKALQVVLAECKPKAKIVDICEKGDSFIKEQTASMYKNSKKKIERGVAFPTCISVNNTVGHFSPLASDESVLEDGDMVKIDMGCHIDGFIALVGHTHVLQEGPLSGRKADVIAAANTAADVALRLVRPGKKNTDVTEAIQKVAAAYDCKIVEGVLSHQLKQHVIDGNKVVLSVSSPETTVDEVEFEENEVYAIDIVASTGDGKPKLLDEKQTTIYKKDESVNYQLKMKASRFIISEIKQNFPRMPFTARSLEEKRARLGLVECVNHGHLQPYPVLYEKPGSCRFGFLPGDFVAQIKFTVLLMPNGSDRITSHTLQELPKKTIEDPEIKGWLALGIKKKKGGGKKKKAQKAGEKGEASTEAEPMDASSNAQE
B3: cYFP-tagged full-length Metallothionein 2A (MT2A), cDNA library clone 212M1 (protein, UniProt P25860 1-81)
chain: MSCCGGNCGCGSGCKCGNGCGGCKMYPDLGFSGETTTTETFVLGVAPAMKNQYEASGESNNAENDACKCGSDCKCDPCTCK
B4: RRM protein (At5g10350), full length, split-YFP fusion in tobacco BY-2 protoplasts (protein, UniProt Q9LX90 1-217)
chain: MEEEEHEVYGGEIPEVGDTDVPDPDIDMSAADEDAVTELAEMKRRLKEMEEEAAALREMQAKVEKEMGATQDPASMAANQEGKEEVDARSVYVGNVDYACTPEEVQLHFQTCGTVNRVTILMDKFGQPKGFAYVEFVEVEAVQEALQLNESELHGRQLKVSPKRTNVPGMKQYHPGRFNPSMGYRFRRPFVPPYFYSPYGYGKAPRFRRPMRYMPYQ
B5: RRM protein (At5g10350), full length, yeast two-hybrid fusion (protein, UniProt Q9LX90 1-217)
chain: MEEEEHEVYGGEIPEVGDTDVPDPDIDMSAADEDAVTELAEMKRRLKEMEEEAAALREMQAKVEKEMGATQDPASMAANQEGKEEVDARSVYVGNVDYACTPEEVQLHFQTCGTVNRVTILMDKFGQPKGFAYVEFVEVEAVQEALQLNESELHGRQLKVSPKRTNVPGMKQYHPGRFNPSMGYRFRRPFVPPYFYSPYGYGKAPRFRRPMRYMPYQ
B6: RRM-4(82-217), RRM domain and C-terminus of the RRM protein, yeast two-hybrid fusion (domain or fragment, UniProt Q9LX90 82-217)
chain: GKEEVDARSVYVGNVDYACTPEEVQLHFQTCGTVNRVTILMDKFGQPKGFAYVEFVEVEAVQEALQLNESELHGRQLKVSPKRTNVPGMKQYHPGRFNPSMGYRFRRPFVPPYFYSPYGYGKAPRFRRPMRYMPYQ
B7: RRM-2(1-169), N-terminus and RRM domain of the RRM protein, yeast two-hybrid fusion (domain or fragment, UniProt Q9LX90 1-169)
chain: MEEEEHEVYGGEIPEVGDTDVPDPDIDMSAADEDAVTELAEMKRRLKEMEEEAAALREMQAKVEKEMGATQDPASMAANQEGKEEVDARSVYVGNVDYACTPEEVQLHFQTCGTVNRVTILMDKFGQPKGFAYVEFVEVEAVQEALQLNESELHGRQLKVSPKRTNVPG
B8: RRM-5(82-169), RRM domain of the RRM protein, yeast two-hybrid fusion (domain or fragment, UniProt Q9LX90 82-169)
chain: GKEEVDARSVYVGNVDYACTPEEVQLHFQTCGTVNRVTILMDKFGQPKGFAYVEFVEVEAVQEALQLNESELHGRQLKVSPKRTNVPG
B9: RRM-1(1-81), N-terminus of the RRM protein, yeast two-hybrid fusion (domain or fragment, UniProt Q9LX90 1-81)
chain: MEEEEHEVYGGEIPEVGDTDVPDPDIDMSAADEDAVTELAEMKRRLKEMEEEAAALREMQAKVEKEMGATQDPASMAANQE

Assays:
[1] = molecular target: T1, RRM protein (At5g10350), full length, split-YFP fusion in tobacco BY-2 protoplasts (Arabidopsis thaliana); assay: split reporter; BiFC screen: nYFP-RRM against a cYFP-tagged Arabidopsis cDNA library in tobacco BY-2 protoplasts; the identified cYFP clones co-transfected with nYFP-RRM and mRFP-VirD2NLS
[2] = molecular target: T2, AtTERT N-terminal domain fragment RID1(1-271), split-YFP fusion in tobacco BY-2 protoplasts (Arabidopsis thaliana); assay: split reporter; BiFC in tobacco BY-2 protoplasts co-transfected with a pair of nYFP and cYFP fusions; overnight in the dark at room temperature; epifluorescence microscopy
[3] = molecular target: T1, RRM protein (At5g10350), full length, split-YFP fusion in tobacco BY-2 protoplasts (Arabidopsis thaliana); assay: as above
[4] = molecular target: T3, RRM protein (At5g10350), full length, yeast two-hybrid fusion (Arabidopsis thaliana); assay: two-hybrid; GAL4-based Matchmaker system, pGADT7-DEST and pGBKT7-DEST fusions co-transformed into S. cerevisiae PJ69-4a (His3 and Ade2 reporters); histidine and stringent adenine selection
[5] = molecular target: T4, RRM-4(82-217), RRM domain and C-terminus of the RRM protein, yeast two-hybrid fusion (Arabidopsis thaliana); assay: as above
[6] = molecular target: T5, RRM-3(170-217), C-terminus of the RRM protein, yeast two-hybrid fusion (Arabidopsis thaliana); assay: as above
[7] = molecular target: T6, RRM-2(1-169), N-terminus and RRM domain of the RRM protein, yeast two-hybrid fusion (Arabidopsis thaliana); assay: as above
[8] = molecular target: T7, RRM-5(82-169), RRM domain of the RRM protein, yeast two-hybrid fusion (Arabidopsis thaliana); assay: as above
[9] = molecular target: RRM-1(1-81), N-terminus of the RRM protein, yeast two-hybrid fusion (Arabidopsis thaliana) (UniProt Q9LX90); assay: as above

Row | Binder | binding [4] | binding [5] | binding [6] | binding [8] | further results
1 | B1 | – | – | – | – | binding [1]: binds
2 | B2 | – | – | – | – | binding [2]: binds
3 | B3 | – | – | – | – | binding [2]: binds
4 | B4 | – | – | – | – | binding [3]: binds
5 | B5 | binds | – | – | – | –
6 | B6 | binds | binds | binds | – | –
7 | MKQYHPGRFNPSMGYRFRRPFVPPYFYSPYGYGKAPRFRRPMRYMPYQ (domain or fragment, UniProt Q9LX90 170-217) [RRM-3(170-217), C-terminus of the RRM protein, yeast two-hybrid fusion] | binds | – | binds | – | –
8 | B7 | no binding | no binding | no binding | no binding | binding [7]: no binding
9 | B8 | no binding | no binding | no binding | no binding | –
10 | B9 | no binding | no binding | no binding | no binding | binding [9]: no binding; binding [7]: no binding

From article PMC4641898
